# Assay results from PubChem BioAssay AID504832 (National Center for Advancing Translational Sciences (NCATS), 2011).
# Several values for one entry are separate records, joined by “and”; a condition that tells them apart may be missing. Equal entries are not always repeated. In all, about 310,000 compounds went through this assay and about 18,000 (5.8%) were called active. The inconclusive results got no clear call from the source; some entries with a clear call stand among them for comparison. Calls follow the shape of the dose curve; as a rule, active = well fitted inhibition curve with a large enough effect; inconclusive = small, poorly fitted or top-dose-only effect, or another doubt; inactive = no such curve, though single readings can be large or run the other way. Potencies beside an inconclusive call are fits to weak or partial responses and may not hold up.
# Experiment: Primary qHTS for delayed death inhibitors of the malarial parasite plastid, 48 hour incubation
# Settings: P. falciparum luciferase growth in erythrocytes; series mostly up to 28.7 µM; activity change, negative = inhibition: at the top concentration
# How it was run: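 Luminescence readout; reporter = integrated firefly luciferase in P. falciparum. RBC culture at 2% hematocrit, 0.1% parasitemia final, 37 C/5% CO2; decreased signal taken as growth inhibition.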
# % is scaled to controls: 0 for no effect and ±100 for the full control effect; potency is read from the fitted curve at half-maximal effect; tags tell the direction and shape of the fitted curve.
Compound,Potency,"activity change, negative = inhibition"
O=C(Nc1nc2ccccc2s1)c1cccc(S(=O)(=O)N2CCc3ccccc32)c1,"inconclusive: 13.1 µM [inhibitor, single point]",
Cc1c(CN2CCC(CO)(CCOc3ccccc3)CC2)c(=O)n(-c2ccccc2)n1C,,inactive: 37.6%
Cc1cc(-c2nnc(SCC(=O)Nc3ccc(Cl)cn3)n2N)n[nH]1,"inconclusive: 18.5 µM [inhibitor, partial curve, poor fit]",
Cc1cccc(NNC(=O)C(=O)NNc2cccc(C)c2)c1,,inactive: -17%
CC(C)n1cc([C@@H]2C[C@H]3CN(Cc4cccc(Cl)c4)C(=O)[C@]34CCCN24)cn1,"inconclusive: 4.65 µM [inhibitor, partial curve, poor fit]",
Cc1cc(C(=O)COC(=O)/C=C/c2cccc(Br)c2)c(C)n1C,"inconclusive: 14.7 µM [inhibitor, single point]",
CC(C)CNC(=O)c1ccc(COc2ccc(Cl)cc2Cl)o1,"inconclusive: 18.5 µM [inhibitor, single point]",
CC(C)(C)n1nc2c(c1NC(=O)c1ccccc1S(=O)(=O)C(F)F)CS(=O)(=O)C2,"inconclusive: 0.0738 µM [inhibitor, full curve, poor fit]",
CCN(CC)CCNC(=O)c1ccc(NC(=O)Cc2ccccc2F)cc1,"inconclusive: 0.37 µM [inhibitor, partial curve, poor fit]",
CC(=O)Nc1ccc(S(=O)(=O)N2CCN(c3nc(NC4CCCC4)c4ccccc4n3)CC2)cc1,active: 2.08 µM,
COc1ccccc1OCCNC(=O)c1cccc(S(=O)(=O)N2CCN(C)CC2)c1,,inactive: 13.6%
CN(C)P(=O)(Nc1cccc2ccccc12)Nc1cccc2ccccc12,active: 4.65 µM,
Cc1ccc2cc(CN(CCN3CCOCC3)Cc3nnnn3Cc3ccco3)c(=O)[nH]c2c1C,,inactive: -14.8%
COc1ccc([N+](=O)[O-])cc1N(CC(=O)Nc1ccccc1C(=O)NC(C)C)S(C)(=O)=O,,inactive: 1.75%
CC1(C)SC(=Nc2ccccc2)N(S(=O)(=O)c2ccccc2)C1=O,,inactive: 9.46%
COc1ccc(-n2c(NC(=O)c3ccco3)c(C#N)c3nc4ccccc4nc32)cc1,"inconclusive: 18.5 µM [inhibitor, single point]",
O=C(C[N+]1(CC#Cc2ccccc2)CCCCC1)c1ccccc1,active: 9.28 µM,
CCN(CC)C(=O)CSc1nc2cc3c(cc2c(=O)n1CCCC(=O)NCCc1ccc(OC)c(OC)c1)OCO3,"inconclusive: 0.0657 µM [inhibitor, full curve, poor fit]",
CC(=O)NC1C(=O)N(C)c2ccc(Br)cc21 (stereo not given),"inconclusive: 0.0415 µM [inhibitor, full curve, poor fit]",
Brc1cccc(-c2n[nH]c(-c3ccccc3)n2)c1,,inactive: 236%
Cc1cc(C)cc(NC(=O)CSc2nc3c(oc4ccccc43)c(=O)n2-c2ccccc2)c1,"inconclusive: 18.5 µM [inhibitor, single point]",
Cc1nc(N2CCC(C)CC2)c2c(C)c(C(=O)Nc3cccc(C(F)(F)F)c3)sc2n1,"inconclusive: 4.15 µM [inhibitor, partial curve]",

Compound,Potency,"activity change, negative = inhibition"
COc1cccc(Nc2nc(-c3cccc(N4C(=O)c5ccccc5C4=O)c3)cs2)c1,,inactive: 10%
CCOc1ccc(NC(=O)CSc2nncc(=O)n2N)cc1,"inconclusive: 10.4 µM [inhibitor, single point]",
COc1ccc(C(=O)NCC(=O)NCCc2c[nH]c3ccccc23)cc1OC,,inactive: 11.1%
CN(C)C(=O)CSc1nnc(NC(=O)CCc2ccccc2)s1,"inconclusive: 8.28 µM [inhibitor, partial curve, poor fit]",
CN(CCCC(=O)Nc1ccncc1)S(=O)(=O)c1ccc(Cl)cc1,"inconclusive: 11.7 µM [inhibitor, partial curve, poor fit]",
O=C(COC(=O)CCC1CCCC1)Nc1cccc(S(=O)(=O)N2CCOCC2)c1,"inconclusive: 0.262 µM [inhibitor, partial curve, poor fit]",
CCN1CCCC1CNC(=O)CN1C(=O)COc2ccc(C)cc21 (stereo not given),,inactive: 23.7%
Cc1ccc(C)c(N2CCN(C(=O)CCS(=O)(=O)c3ccc4c(c3)oc(=O)n4C)CC2)c1,"inconclusive: 13.1 µM [inhibitor, single point]",
CN1CN=C(N[N+](=O)[O-])N(Cc2ccco2)C1,,inactive: 0.103%
O=C(Cc1nc2ccccc2[nH]1)c1ccc(Br)cc1,"inconclusive: 1.85 µM [inhibitor, full curve]",
CC(=O)Nc1ccc(-c2cc(-c3ccccc3)nc(-c3ccccc3)n2)cc1,"inconclusive: 18.5 µM [inhibitor, single point]",
Cn1c(SCC(=O)NCCN2C(=O)CSC2=O)nnc1-c1ccccc1,,inactive: 42.9%
Cc1ccc(C(=O)NCC(=O)NCCCc2ccccc2)s1,"inconclusive: 0.0828 µM [inhibitor, full curve, poor fit]",
Cc1cc(=O)oc2cc(OCC(=O)OCC(=O)NCCc3ccccc3)ccc12,"inconclusive: 4.15 µM [inhibitor, single point]",
CCOC(=O)c1oc2nc(CC(C)C)c3c(c2c1N)CCCC3,"inconclusive: 9.28 µM [inhibitor, partial curve, poor fit]",
CCOc1ccccc1NC(=O)CN1CCC(C(=O)c2ccc(F)cc2)CC1,"inconclusive: 14.7 µM [inhibitor, partial curve]",
Cc1ccc(C2=NC(C)(C)N3C2C3c2ccc([N+](=O)[O-])cc2)cc1 (stereo not given),"inconclusive: 1.04 µM [inhibitor, partial curve, poor fit]",
O=S(=O)(c1cccs1)N1CN(Cc2cccs2)c2nc3ccccc3nc21,"inconclusive: 10.4 µM [inhibitor, partial curve]",
Cc1cccc(C(C)C)c1NC(=O)COC(=O)C1CC(=O)N(Cc2ccccc2)C1 (stereo not given),,inactive: 0.575%
CCOC(=O)C1=C(COc2ccc(F)cc2Cl)NC(=O)NC1c1cc(C)ccc1C (stereo not given),"inconclusive: 10.4 µM [inhibitor, single point]",
CC(C)Cc1nc(Nc2ccccc2C#N)c2nnn(Cc3ccccc3)c2n1,"inconclusive: 5.86 µM [inhibitor, partial curve, poor fit]",
CCCn1ccnc1SC(C)C(=O)Nc1c(C)n(C)n(-c2ccccc2)c1=O (stereo not given),"inconclusive: 18.5 µM [inhibitor, single point]",

Compound,Potency,"activity change, negative = inhibition"
O=C1c2ccccc2C(=O)N1CCCn1c(=O)oc2ccccc21,,inactive: 0.861%
COc1ccc(-n2c(SCC(=O)Nc3cc(C)on3)nc3c([nH]c4ccccc43)c2=O)cc1,"inconclusive: 0.465 µM [inhibitor, partial curve, poor fit]",
NC(=O)c1cc[n+](CC2=C(C(=O)O)N3C(=O)[C@@H](NC(=O)[C@H](c4ccccc4)S(=O)(=O)[O-])[C@@H]3SC2)cc1,"inconclusive: 1.44 µM [inhibitor, full curve, poor fit]",
COc1ccc(CCNC(=O)C2CCC(=O)N(CC3CCCCC3)C2)cc1 (stereo not given),"inconclusive: 16.5 µM [inhibitor, single point]",
O=C(Nc1cccc(C(F)(F)F)c1)c1ccccc1NC(=O)C1CCCCC1,"inconclusive: 18.5 µM [inhibitor, single point]",
Cc1cccc(NC(=O)c2ccc(Cl)c(S(=O)(=O)N3CCCCCC3)c2)n1,"inconclusive: 18.5 µM [inhibitor, single point]",
Oc1ccc(Cn2ccnc2)c2cccnc12,active: 3.7 µM,
c1ccc2c(CCNCc3ccc4c(c3)OCO4)c[nH]c2c1,"inconclusive: 18.5 µM [inhibitor, single point]",
CCCCn1c(N)c(N(CC(C)C)C(=O)c2cc(S(=O)(=O)N3CCOCC3)ccc2Cl)c(=O)[nH]c1=O,"inconclusive: 18.5 µM [inhibitor, partial curve, poor fit]",
COC(=O)c1ccccc1NC(=O)C1CCCC1,,inactive: 1.16%
COc1cc(NC(=O)CN(c2ccc(C)cc2)S(=O)(=O)c2c(C)n[nH]c2C)cc(OC)c1,"inconclusive: 8.28 µM [inhibitor, single point]",
Cc1ccc(NC(=O)[C@@H](NC(=O)c2cccc(S(=O)(=O)N3CCOCC3)c2)C(C)C)cc1C,"inconclusive: 14.7 µM [inhibitor, partial curve]",
NC(=S)NC1CC2C=CC1C2 (stereo not given),,inactive: 76.5%
O=C(c1cc2ccccc2o1)N1CCN(Cc2ccccc2)CC1,"inconclusive: 15.1 µM [inhibitor, single point] and inconclusive: 18.5 µM [inhibitor, single point]",
O=C1NC(=O)/C(=C\c2cn(CC(=O)N3CCOCC3)c3ccccc23)S1,,inactive: -1.62%
CCOC(=O)N1CCN(S(=O)(=O)c2ccc(F)c(C(=O)Nc3cccc(C)c3C)c2)CC1,"inconclusive: 3.29 µM [inhibitor, partial curve, poor fit]",
CCn1ccnc1CN1CCc2c([nH]c3ccccc23)C1CC(C)C (stereo not given),"inconclusive: 13.1 µM [inhibitor, single point]",
COC(=O)c1c(C)n(-c2ccccc2)c2ccc(O)cc12,"inconclusive: 5.86 µM [inhibitor, partial curve, poor fit]",
COc1ccccc1N1CCN(C(=O)C(C)N(c2ccc(C)c(C)c2)S(C)(=O)=O)CC1 (stereo not given),"inconclusive: 11.7 µM [inhibitor, single point]",
O=C(Nc1cccn(Cc2c(Cl)cccc2Cl)c1=O)c1ccc(Cl)cc1Cl,"inconclusive: 18.5 µM [inhibitor, single point]",
COc1ccc(/C=C(\NC(=O)c2ccccc2)C(=O)N/N=C/c2ccncc2)cc1,"inconclusive: 20.8 µM [inhibitor, partial curve, poor fit]",
